Measurements as given in patent US20120295845A1, “IMIDAZO-PYRAZOLES AS GPR119 INHIBITORS” (Pfizer Inc, priority 2009, published 2012).
Not every entry of the source has a single result; some have several. The other results are left out here. There may be further records. The values listed for one entry appear to be repeats (runs, samples, wells or individuals); one of them may be the mean.

Biological target: T1, human GPR119 (Homo sapiens, UniProt Q8TDV5)
T1 construct: host or cells: HEK293-CRE beta-lactamase cells
T1 sequence (Q8TDV5 1-335): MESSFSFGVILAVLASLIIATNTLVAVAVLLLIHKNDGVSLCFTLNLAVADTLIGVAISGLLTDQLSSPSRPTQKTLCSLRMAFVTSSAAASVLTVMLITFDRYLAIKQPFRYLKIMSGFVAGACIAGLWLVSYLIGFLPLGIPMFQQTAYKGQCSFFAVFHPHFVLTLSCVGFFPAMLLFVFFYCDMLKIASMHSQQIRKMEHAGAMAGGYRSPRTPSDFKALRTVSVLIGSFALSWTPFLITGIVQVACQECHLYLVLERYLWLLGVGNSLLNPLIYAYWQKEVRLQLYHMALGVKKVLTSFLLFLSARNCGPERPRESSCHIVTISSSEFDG
Test: cAMP functional assay (HTRF, hGPR119 HEK-CRE beta-lactamase cells)
Assay type: cell-based
Conditions: 30 min incubation with IBMX, one value per run
Protocol: GPR119 agonist activity was also determined with a cell-based assay utilizing an
HTRF (Homogeneous Time-Resolved Fluorescence) cAMP detection kit (cAMP dynamic 2 Assay Kit; Cis Bio cat # 62AM4PEC) that measures cAMP levels in the cell. The method is a competitive immunoassay between native cAMP produced by the cells and the cAMP labeled with the dye d2. The tracer binding is visualized by a Mab anti-cAMP labeled with Cryptate. The specific signal (Le. energy transfer) is inversely proportional to the concentration of cAMP in either standard or sample. […]
Varying concentrations of each compound to be tested were diluted in assay buffer containing 3-isobutyl-1-methylxanthin (1BMX; Sigma cat #15879) and added to the assay plate weds in a volume of 2 microL (final BMX concentration was 400 microM and final DMSO concentration was 0.58%). […] The plates were then incubated at room temperature and after 60 minutes, changes in the HTRF signal were read with an Envision 2104 multilabel plate reader using excitation of 330 nm and emissions of 615 and 665 nm. Raw data were converted to nM cAMP by interpolation from a cAMP standard curve (as described in the manufacturer's assay protocol) and EC50 determinations were made from an agonist-response curves analyzed with a curve fitting program using a 4-paramter logistic dose response equation.

**Q.** For `Cc1c(OC2CCN(C(=O)OC(C)C)CC2)ncnc1N1CCn2nccc21` [Example 1, Isopropyl 4-{[6-(2,3-dihydro-1H-imidazo[1,2-b]pyrazol-1-yl)-5-methylpyrimidin-4-yl]oxy}piperidine-1-carboxylate], which EC50 is on record?
**A.** The EC50 was 703 nM, 842 nM, > 10 µM [lines of one column].
